# In all, about 410,000 compounds went through this assay and about 7,200 (1.8%) were called active. The inconclusive results got no clear call from the source; some entries with a clear call stand among them for comparison. Calls follow the shape of the dose curve; as a rule, active = well fitted activation curve with a large enough effect; inconclusive = small, poorly fitted or top-dose-only effect, or another doubt; inactive = no such curve, though single readings can be large or run the other way. Potencies of inconclusive entries are left out as doubtful fits.
# Test: qHTS of TDP-43 Inhibitors; also: nearly all actives have a fitted effect of over 50% in size
# Settings: TDP-43 expressing yeast growth rescue, BacTiter-Glo, 24 h; series mostly up to 46.1 µM
# Outline: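 Cell-based yeast growth screen: TDP-43 expression induced in galactose, inoculum OD600=0.02 after raffinose pregrowth to mid-log. Read-out BacTiter-Glo luminescence at 24 hr, 30 deg C; inhibition of toxicity seen as signal increase.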
# Potency is read from the fitted curve at half-maximal effect; tags tell the direction and shape of the fitted curve.
row,Compound,Potency
1,COc1ccccc1OCCN1CSC(=S)N(C)C1,active: 20 µM
2,O=C(CSc1nc(=O)[nH]c2c1CCCC2)NCc1ccc(F)cc1,inactive
3,COc1cccc2c1C1(O)C2CCCCCCCCCC12OCCCO2 (configuration not stated),"inconclusive [activator, partial curve]"
4,CCOC(=O)c1c(C)c(-c2ccccc2)n(CC(=O)NCCc2cccc(C)c2)c1C,inactive
5,COCCn1c(C)cc(O)c(C(c2ccc(F)cc2)N2CCN(c3ccccc3)CC2)c1=O (configuration not stated),"inconclusive [activator, partial curve, poor fit]"
6,CC1CCCN(S(=O)(=O)c2cc3c4c(c2)CC(=O)N4CCC3)C1 (configuration not stated),inactive
7,Cn1nc(C(=O)N2CCN(c3ccc(F)cc3)CC2)c2c1-c1ccccc1SC2,inactive
8,CCN(C(=O)c1cn(CC(C)C)c(=O)c2cc(OC)c(OC)cc12)c1cc(OC)ccc1OC,inactive
9,O=S(=O)(NCc1ccc2c(c1)OCO2)c1cccc(F)c1,"inconclusive [activator, partial curve]"
10,O=C(CN1C2CCC1CC(NC(=O)Nc1ccccc1)C2)NCc1ccco1 (configuration not stated),inactive
11,NC(=O)c1cccc(-c2coc3c(C(=O)NC4CCCCC4)cccc23)c1,"inconclusive [activator, partial curve]"
12,CCC(NC(=S)NCc1ccc(F)cc1)c1ccc(C)cc1 (configuration not stated),"inconclusive [activator, single point]"
13,CCNC(=O)NC(=O)CSc1cccc(C(F)(F)F)c1,"inconclusive [activator, single point]"
14,O=C(COc1ccc2ccccc2c1)NCCn1ccc2ccccc21,active: 22.4 µM
15,Cc1cc(C)cc(OCCCC(=O)O)c1,"inconclusive [activator, single point]"
16,COC(=O)c1ccccc1NC(=O)NCc1ccccc1,"inconclusive [activator, partial curve, poor fit]"
17,COc1cc(C(=O)NCc2ccccc2)cc(Br)c1OC,inactive
18,COc1cccc(C(=O)NCCn2ccc3ccccc32)c1,"inconclusive [activator, partial curve]"
19,CC(C)N(Cc1nc(-c2ccc(Cl)cc2)no1)C(=O)c1ccco1,active: 35.5 µM
20,CCOC(=O)C1CCN(C(=O)c2cnn3c(C)cc(C)nc23)CC1,inactive
21,Nc1nnc(CSc2ccc(Cl)cc2)s1,"inconclusive [activator, partial curve]"
22,Cc1ccccc1C(=O)N1CCC2CC1c1cc(-c3ccc(F)cc3)ccc12 (configuration not stated),"inconclusive [activator, single point]"

# Source: PubChem BioAssay AID652104 (National Center for Advancing Translational Sciences (NCATS), 2013)
